Measurements from PubChem BioAssay AID1671194 (National Center for Advancing Translational Sciences (NCATS), 2021).
The whole screen tested about 140,000 compounds, of which about 240 (0.17%) were called active. This list was built around the results that the source calls inconclusive (neither active nor inactive); the mix of calls is not that of the screen. Calls come from the whole dose curve; as a rule, active = well fitted inhibition curve with a large enough effect; inconclusive = small, poorly fitted or top-dose-only effect; inactive = no such curve, though single readings can be large or run the other way. Where the call is inconclusive, the potency comes from a doubtful curve fit.

Assay: Primary qHTS assay for inhibitors of alpha-synuclein gene (SNCA) expression; note: nearly all actives have a fitted effect of over 45% in size
Details: HEK-293 SNCA-luciferase knock-in, luminescence, 24 h; series mostly up to 57.2 µM
Potency is the fitted concentration of half-maximal effect; tags give direction and shape of the fitted curve.

Which Potency does the source give for `Cc1ccc(-n2c(C)nc3c(cnn3-c3ccccc3)c2=O)cc1` here?
Its Potency is “inactive”.

With `O=C(NCCCc1ccccc1)c1ccc2oc(-c3ccncc3)nc2c1` as the compound, how does the Potency read?
Its Potency is “inactive”.

With `CCc1cccc(NC(=O)C2CCCN2S(=O)(=O)c2ccc3nc(-c4ccccc4)[nH]c3c2)c1` (configuration not stated) as the compound, how does the Potency read?
Its Potency is inconclusive: 25.1 µM [inhibitor, partial curve, poor fit].

With `Cn1ccc2c(NC(=O)C[C@H]3NC(=O)c4ccccc4NC3=O)cccc21` as the compound, how does the Potency read?
The Potency was “inactive”.

Which Potency does the source give for `O=C(NCc1cccc(Cl)c1)c1noc(-c2ccc3c(c2)OCO3)n1` here?
The Potency was “inactive”.

With `COCCNC(=O)[C@@H]1C[C@H](Oc2cccnc2)CN1C(=O)COc1ccccc1` as the compound, how does the Potency read?
The Potency was inconclusive: 1.41 µM [inhibitor, full curve, poor fit].

With `C[C@@H]1C(=O)O[C@H]2[C@H]1CC[C@@]1(C)Cc3sc(NC(=O)COCC(=O)O)nc3[C@@H](C)[C@H]21` as the compound, how does the Potency read?
Its Potency is inconclusive: 2.51 µM [inhibitor, partial curve, poor fit].

With `CNC(=O)c1cn2c(n1)CN(C(=O)c1ccccc1)CC2` as the compound, how does the Potency read?
The Potency was inconclusive: 2.24 µM [inhibitor, full curve, poor fit].

Which Potency does the source give for `Cc1ccc(CCNC(=O)C2CCCN(c3nnc(C)c4c(C)n(-c5ccccc5)nc34)C2)cc1` (configuration not stated) here?
Its Potency is inconclusive: 28.2 µM [inhibitor, single point].

With `CCOC(=O)c1c(C)n(-c2ccccc2)c2ccc(OC(=O)COc3ccc(Cl)cc3)cc12` as the compound, how does the Potency read?
Its Potency is inconclusive: 7.08 µM [inhibitor, single point].

Which Potency does the source give for `CCn1cc(S(=O)(=O)N2C[C@@H](C(N)=O)[C@H](c3n[nH]c(C)n3)C2)cn1` here?
Its Potency is inconclusive: 1.26 µM [inhibitor, full curve, poor fit].

For `CN(C)c1cccc(C(=O)Nc2ncc(-c3cccc(F)c3)c3c2OCC3)c1`, which Potency is on record?
Its Potency is inconclusive: 8.91 µM [inhibitor, single point].

For `Cc1cccc(NC(=O)C2CCCN2S(=O)(=O)c2ccc3nc(-c4ccccc4)[nH]c3c2)c1` (configuration not stated), which Potency is on record?
Its Potency is inconclusive: 6.31 µM [inhibitor, partial curve, poor fit].

With `CCCCc1ccc(NC(=O)CN2C(=O)NC(c3ccc(Cl)cc3)C3=C2COC3=O)cc1` (configuration not stated) as the compound, how does the Potency read?
The Potency was active: 12.6 µM.

With `O=C(CCc1conc1-c1ccccc1)NCc1ccco1` as the compound, how does the Potency read?
Its Potency is inconclusive: 10 µM [inhibitor, single point].

For `CCCc1ccc(S(=O)(=O)N2CCc3nc4cc[nH]n4c(=O)c3C2)cc1`, which Potency is on record?
The Potency was inconclusive: 8.91 µM [inhibitor, partial curve].

For `CCOc1ccc2c(n1)CCN(C(=O)Nc1ccc(C)c(C)c1)C2`, which Potency is on record?
Its Potency is “inactive”.
